# Measurements taken from the supplement of paper PMC10320760.
# The data scatter; read single values as rough.
# B1: Ydj1; a variant is named by its letters at X, in order (parent)
# chain: MVKETKFYDILGVPVTATDVEIKKAYRKCALKYHPDKNPSEEAAEKFKEASAAYEILSDPEKRDIYDQFGEDGLSGAGGAGGFPGGGFGFGDDIFSQFFGAGGAQRPRGPQRGKDIKHEISASLEELYKGRTAKLALNKQILCKECEGRGGKKGAVKKCTSCNGQGIKFVTRQMGPMIQRFQTECDVCHGTGDIIDPKDRCKSCNGKKVENERKILEVHVEPGMKDGQRIVFKGEADQAPDVIPGDVVFIVSERPHKSFKRDGDDLVYEAEIDLLTAIAGGEFALEHVSGDWLKVGIVPGEVIAPGMRKVIEGKGMPIPKYGGYGNLIIKFTIKFPENHFTSEENLKKLEEILPPRIVPAIPKKATVDECVLADFDPAKYNRTRASRGGANYDSDEEEQGGEGVQCXXX
# Variants of: B1
# Experiment: enrichment factor, frequency at 37 °C / frequency at 25 °C (thermotolerance selection) (ratio); higher = more growth at 37 °C, higher likelihood of farnesylation
# Conditions: with Saccharomyces cerevisiae ydj1Δ (yWS304); selective temperature 37 °C; reference temperature 25 °C
# Procedure: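 Pooled library of all 8,000 Ydj1-CXXX C-terminal motif variants (native CASQ replaced by C + three variable residues, one codon per amino acid) expressed from a CEN plasmid in S. cerevisiae ydj1Δ (yWS304). The library was grown in SC-Ura liquid to A600 ~2 (~8 generations) at permissive 25 °C or selective 37 °C. Reads from 8 and 7 replicates were pooled and variants counted by NGS. Enrichment factor = frequency at 37 °C / frequency at 25 °C, with a +1 correction; it reports Ydj1-dependent thermotolerance, used as a read-out of farnesylation by yeast FTase.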
row,Variant,enrichment factor
1,RKS,0.146
2,SKS,0.138
3,TKS,0.279
4,VKS,0.896
5,WKS,0.892
6,YKS,0.126
7,DKS,0.138
8,EKT,0.181
9,FKT,1.13
10,AKT,0.168
11,GKT,0.151
12,HKT,0.203
13,IKT,0.106
14,KKT,0.0628
15,LKT,0.09
16,MKT,0.146
17,NKT,0.233
18,PKT,0.109
19,QKT,0.132
20,RKT,0.202
21,CKT,0.183
22,SKT,0.147
23,TKT,0.162
24,VKT,0.132

row,Variant,enrichment factor
1,WKT,1.19
2,YKT,0.252
3,DKT,0.157
4,EKV,0.128
5,FKV,1.42
6,AKV,0.173
7,GKV,0.0724
8,HKV,0.153
9,IKV,0.19
10,KKV,0.232
11,LKV,0.152
12,MKV,0.118
13,NKV,0.159
14,PKV,0.258
15,QKV,0.131
16,RKV,0.118
17,CKV,0.6
18,SKV,0.141
19,TKV,0.159
20,VKV,0.399
21,WKV,1.26
22,YKV,0.18
23,DKV,0.189
24,EKW,0.117

row,Variant,enrichment factor
1,FKW,0.184
2,AKW,0.197
3,GKW,0.186
4,HKW,0.173
5,IKW,0.155
6,KKW,0.145
7,LKW,0.101
8,MKW,0.121
9,NKW,0.145
10,PKW,0.131
11,QKW,0.147
12,RKW,0.131
13,CKW,0.146
14,SKW,0.169
15,TKW,0.139
16,VKW,0.189
17,WKW,0.823
18,YKW,0.178
19,DKW,0.121
20,EKY,0.0724
21,FKY,0.159
22,AKY,0.178
23,GKY,0.193
24,HKY,0.121

row,Variant,enrichment factor
1,IKY,0.161
2,KKY,0.0965
3,LKY,0.25
4,MKY,0.142
5,NKY,0.162
6,PKY,0.144
7,QKY,0.169
8,RKY,0.151
9,CKY,0.175
10,SKY,0.128
11,TKY,0.0789
12,VKY,0.132
13,WKY,0.861
14,YKY,0.166
15,DKY,0.283
16,ELA,3.47
17,FLA,1.45
18,ALA,0.579
19,GLA,1.57
20,HLA,3.13
21,ILA,1.08
22,KLA,1.77
23,LLA,1.51
24,MLA,2.11

row,Variant,enrichment factor
1,NLA,1.19
2,PLA,1.13
3,QLA,2.68
4,RLA,1.47
5,CLA,0.824
6,SLA,1.1
7,TLA,0.519
8,VLA,1.33
9,WLA,1.59
10,YLA,0.651
11,DLA,1.53
12,ELC,2.38
13,FLC,1.49
14,ALC,0.874
15,GLC,0.443
16,HLC,0.934
17,ILC,0.745
18,KLC,0.314
19,LLC,1.21
20,MLC,1.28
21,NLC,0.521
22,PLC,0.819
23,QLC,1.02
24,RLC,0.613

row,Variant,enrichment factor
1,CLC,0.746
2,SLC,1.27
3,TLC,0.673
4,VLC,0.788
5,WLC,1.25
6,YLC,1.43
7,DLC,1.35
8,ELD,1.49
9,FLD,1.7
10,ALD,1.18
11,GLD,1.37
12,HLD,2.45
13,ILD,1.97
14,KLD,1.4
15,LLD,1.56
16,MLD,1.41
17,NLD,1.88
18,PLD,1.71
19,QLD,3.58
20,RLD,1.14
21,CLD,1.64
22,SLD,2.33
23,TLD,1.84
24,VLD,1.33

row,Variant,enrichment factor
1,WLD,2.05
2,YLD,2.73
3,DLD,1
4,ELE,1.38
5,FLE,1.48
6,ALE,1.88
7,GLE,1.38
8,HLE,2.9
9,ILE,1.32
10,KLE,1.52
11,LLE,1.52
12,MLE,1.58
13,NLE,1.87
14,PLE,1.81
15,QLE,2.12
16,RLE,1.56
17,CLE,1.45
18,SLE,1.87
19,TLE,1.86
20,VLE,3.22
21,WLE,1.93
22,YLE,1.9
23,DLE,0.628
24,ELF,0.975

row,Variant,enrichment factor
1,FLF,0.772
2,ALF,1.87
3,GLF,3.94
4,HLF,1.35
5,KLF,0.842
6,LLF,1.06
7,MLF,0.965
8,NLF,2.51
9,PLF,0.965
10,QLF,2.43
11,RLF,1.05
12,CLF,0.802
13,SLF,1.02
14,TLF,3.35
15,VLF,0.846
16,WLF,1.74
17,YLF,1.45
18,DLF,1.85
19,ELG,1.41
20,FLG,3.31
21,ALG,2.15
22,GLG,1.18
23,HLG,1.39
24,ILG,1.85

row,Variant,enrichment factor
1,KLG,1.03
2,LLG,2.08
3,MLG,2.15
4,NLG,1.3
5,PLG,1.09
6,QLG,2.36
7,RLG,0.993
8,CLG,0.989
9,SLG,1.59
10,TLG,1.61
11,VLG,0.858
12,WLG,2.51
13,YLG,2.55
14,DLG,1.33
15,ELH,2.03
16,FLH,3.38
17,ALH,2.82
18,GLH,1.4
19,HLH,2.23
20,ILH,2.46
21,KLH,0.811
22,LLH,2.79
23,MLH,1.74
24,NLH,1.82

row,Variant,enrichment factor
1,PLH,1.61
2,QLH,2.53
3,RLH,3.36
4,CLH,1.63
5,SLH,2.44
6,TLH,1.59
7,VLH,1.44
8,WLH,3
9,YLH,3.05
10,DLH,1.57
11,ELI,1.13
12,FLI,1.01
13,ALI,0.892
14,GLI,1.12
15,HLI,2.14
16,ILI,1.12
17,KLI,0.901
18,LLI,0.827
19,MLI,1.25
20,NLI,0.965
21,PLI,0.745
22,QLI,1.19
23,RLI,0.739
24,CLI,0.537

row,Variant,enrichment factor
1,SLI,0.97
2,TLI,1.2
3,VLI,0.835
4,WLI,2.25
5,YLI,3.47
6,DLI,0.986
7,ELK,1.62
8,FLK,0.692
9,ALK,2.03
10,GLK,0.593
11,HLK,1.83
12,ILK,2.67
13,KLK,1.3
14,LLK,1.56
15,MLK,1.69
16,NLK,1.26
17,PLK,1.82
18,QLK,1.45
19,RLK,1.24
20,CLK,0.906
21,SLK,1.54
22,TLK,2.03
23,VLK,1.44
24,WLK,0.364

row,Variant,enrichment factor
1,YLK,1.88
2,DLK,0.153
3,ELL,1.36
4,FLL,1.95
5,ALL,0.873
6,GLL,1.22
7,HLL,1.85
8,ILL,1.84
9,KLL,1.54
10,LLL,1.11
11,MLL,0.892
12,NLL,0.982
13,PLL,1
14,QLL,1.25
15,RLL,0.772
16,CLL,1.02
17,SLL,0.59
18,TLL,0.654
19,VLL,0.796
20,WLL,1.66
21,YLL,2.2
22,DLL,1.2
23,ELM,2.25
24,FLM,2.03

row,Variant,enrichment factor
1,ALM,1
2,GLM,1.19
3,HLM,0.662
4,ILM,1.23
5,KLM,1.03
6,LLM,1.72
7,MLM,0.55
8,NLM,1.11
9,PLM,0.761
10,QLM,1.5
11,RLM,0.997
12,CLM,0.752
13,SLM,0.634
14,TLM,0.799
15,VLM,0.977
16,WLM,0.386
17,YLM,1.16
18,DLM,1.16
19,ELN,1.05
20,FLN,3.47
21,ALN,1.77
22,GLN,1.92
23,HLN,1.21
24,ILN,1.85

row,Variant,enrichment factor
1,KLN,2.51
2,LLN,2.08
3,MLN,2.24
4,NLN,2.7
5,PLN,1.36
6,QLN,3.35
7,RLN,2.14
8,CLN,1.02
9,SLN,1.4
10,TLN,1.58
11,VLN,1.31
12,WLN,0.441
13,YLN,1.39
14,DLN,1.72
15,ELP,0.132
16,FLP,3.8
17,ALP,0.273
18,GLP,0.255
19,HLP,2.76
20,ILP,0.174
21,KLP,0.138
22,LLP,0.215
